Source: PubChem BioAssay AID1645887 (National Center for Advancing Translational Sciences (NCATS), 2021)
Where “and” joins values, the source holds several entries; their conditions need not be identical. Identical values can stand only once. The whole screen tested about 16,000 compounds, of which about 40 (0.2%) were called active. Another 1% or so got no clear call; they are omitted. Calls follow the shape of the dose curve; as a rule, active = well fitted activation curve with a large enough effect; inconclusive = small, poorly fitted or top-dose-only effect, or another doubt; inactive = no such curve, though single readings can be large or run the other way. This is one part of the list.

molecular target: Rap guanine nucleotide exchange factor 4 (Homo sapiens) (UniProt Q8WZA2); experiment: Validation qHTS for agonist of cAMP-regulated guanine nucleotide exchange factor 4 (EPAC2); settings: EPAC2 Rap1B BODIPY-GDP exchange, fluorescence; activation: stronger effect = higher value;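 also: exchange makes BODIPY-GDP fluorescence drop when released from Rap1B; series mostly up to about 150 µM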
In short: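 Fluorescent exchange assay: 100 nM EPAC2 with 250 nM RAP1B-BODIPY-GDP and 50 uM GDP; compound added, 5 min at room temperature, then read (ex 480/em 540 nm) every 5 min for 30 min. Normalized to 6.5 mM cAMP agonist control.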
% is scaled to controls: 0 for no effect and ±100 for the full control effect.

UniProt Q8WZA2, sequence (Q8WZA2 whole entry, looked up): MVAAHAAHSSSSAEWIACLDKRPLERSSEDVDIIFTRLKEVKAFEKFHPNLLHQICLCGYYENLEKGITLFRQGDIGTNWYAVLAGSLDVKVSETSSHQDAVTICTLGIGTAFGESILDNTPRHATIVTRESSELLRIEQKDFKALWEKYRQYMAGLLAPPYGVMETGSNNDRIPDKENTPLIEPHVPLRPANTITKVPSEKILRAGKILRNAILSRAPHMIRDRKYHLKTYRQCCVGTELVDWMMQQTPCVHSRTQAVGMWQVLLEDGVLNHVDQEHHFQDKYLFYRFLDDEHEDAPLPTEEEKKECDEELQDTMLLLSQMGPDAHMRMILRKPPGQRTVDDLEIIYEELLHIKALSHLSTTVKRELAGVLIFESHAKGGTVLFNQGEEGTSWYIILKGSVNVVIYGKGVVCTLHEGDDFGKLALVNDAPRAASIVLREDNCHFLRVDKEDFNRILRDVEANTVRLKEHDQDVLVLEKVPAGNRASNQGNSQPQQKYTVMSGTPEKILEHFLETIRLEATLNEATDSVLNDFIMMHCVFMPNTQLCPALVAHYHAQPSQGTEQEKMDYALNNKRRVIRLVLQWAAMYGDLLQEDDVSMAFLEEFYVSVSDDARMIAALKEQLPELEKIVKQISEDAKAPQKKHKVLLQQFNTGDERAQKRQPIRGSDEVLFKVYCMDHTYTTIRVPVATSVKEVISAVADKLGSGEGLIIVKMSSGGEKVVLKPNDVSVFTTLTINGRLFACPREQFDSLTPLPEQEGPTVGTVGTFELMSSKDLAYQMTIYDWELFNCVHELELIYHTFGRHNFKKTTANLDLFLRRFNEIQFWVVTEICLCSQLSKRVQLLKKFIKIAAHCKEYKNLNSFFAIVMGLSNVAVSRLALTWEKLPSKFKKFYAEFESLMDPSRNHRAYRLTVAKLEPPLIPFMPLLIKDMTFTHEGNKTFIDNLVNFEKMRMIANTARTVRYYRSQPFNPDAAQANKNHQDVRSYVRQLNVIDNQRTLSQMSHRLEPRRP

activation, inactive:
COc1ccc(CNC(=O)[C@@H]2CC=C[C@@H]3CCN(C4CCCCC4)C(=O)[C@@H]32)cc1 -7.04%, COC1=CC(=O)C=C(OC)C1=O 7.62%, COC(=O)C1OC(=O)C2OC23[C@]2(C)C(OC(C)=O)CC4C(C)(C)C(=O)CC[C@]4(C)C2CC[C@@]13C (stereo partly drawn) -8.86%, CCc1ccc(C(=O)C(C)CN2CCCCC2)cc1 (stereo not drawn) -7.8%, CC(C)N1[N]C(=C2C=c3cc(O)ccc3=N2)c2c(N)ncnc21 -6.48%, COc1cc(OC)c2c(=O)c(-c3ccccc3)c(C)oc2c1OC -1.16%, O=C(c1cnccn1)N1CCC[C@@]2(CCN(Cc3ccncc3)C2)C1 -6.74%, CC(CCC(=O)O)C1CCC2C3CC[C@H]4CC(O)CC[C@@]4(C)C3C=C[C@]12C (stereo partly drawn) -3.85%, COc1ccc(CN2CCN(C(c3ccc(F)cc3)c3ccc(F)cc3)CC2)c(OC)c1OC -9.75%, CC(C)Cc1ccc(C(C)C(=O)O)cc1 (stereo not drawn) -6.1% and 5.21% and -26.9%, CC(C)C[C@@H](CN=[N+]=[N-])N1CCN(CC(C)C)CCC1=O -11.8%, [Cl][In]([Cl])[Cl] -14.9%, COc1cc2c(cc1OC)C(=O)N(C)CC2 -9.91%, COC(=O)c1cc(-c2c(-c3cc(OC)c(OC)c(OC)c3)noc2C)cc([N+](=O)[O-])c1 -4.06%, C#CCN(C1CCCC1)S(=O)(=O)C=C -11.6%, COC(=O)N1CCC2(CCCN(C(c3ccccc3)c3ccccc3)C2)CC1 -12.3%, COc1ccc(CCNC(=O)c2cnn(-c3nccc(-c4cccs4)n3)c2C)cc1OC -15.8%, CC(=O)NCCNc1ncnc2ccc(-c3ccc4c(c3)OCO4)cc12 2.54%, N#Cc1cccc(-c2cc(NCc3cccs3)ncn2)c1 -20.6%, O=C(Cn1cncn1)NCC1Cc2cc(-c3ccsc3)cc(Cl)c2O1 (stereo not drawn) -13.7%, CC(C)(C)NC[C@H](O)COc1ccccc1C1CCCC1 2.51%, COC(=O)C[C@H]1c2cc(C(F)(F)F)ccc2S(=O)(=O)N1C(C)C -35.6%, COc1cc(-c2cccc(Cl)c2)cc2c1OCCN(C(=O)CCn1ccc(C)n1)C2 -18.2%, Cc1nc2cc(NC(=O)[C@@H]3C[C@@H](Sc4ccccn4)CN3Cc3ccccc3F)ccc2s1 3.35%, CC(C)(C)NCC(O)COc1cccc2c1C[C@H](O)[C@H](O)C2 (stereo partly drawn) 1.58%, COc1ccc(NC(=O)N2CC3(CCN(S(=O)(=O)c4ccccc4)CC3)C2)cc1 -7.63%, Nc1nc(=O)n(C2OC(CO)C(O)C2O)cc1Cl (stereo not drawn) -10.6%, CCCCC[C@H](O)C=C[C@H]1[C@H](O)CC(=O)[C@H]1CCCCCCC(=O)O -15.3%, COc1ccc(C(=O)c2ccccc2O)c(O)c1 -4.9% and -5.65%, COc1ccccc1CN1CCC2(CC1)CCN(C(=O)c1csnn1)CC2 -11.2%, COc1ccc(OC)c(CN2CCCC(c3nc(-c4ccncc4)ncc3-c3ccccc3C)C2)c1 (stereo not drawn) -2.68%, O=C(c1csnn1)N1CCC2(CC1)CN(c1ccccn1)C2 -22.7%, COCCc1ccc(OCC(O)CNC(C)C)cc1 (stereo not drawn) -2.34% [middle of 4 runs], COc1ccc(CNc2ncncc2-c2ccc(N(C)C)cc2)c(OC)c1 -5.86%, COc1ccc(O)c(C(=O)N2CCC3(CC2)c2ccccc2[C@@H](NC(=O)c2ccccn2)[C@@H]3OC)c1 -11%, N#CCCn1c(=O)c(CCc2ccccc2)nc2cnc(N3CCOCC3)nc21 -17.5%, Nc1nc2[nH]cc(CCc3ccc(C(=O)N[C@@H](CCC(=O)O)C(=O)O)cc3)c2c(=O)[nH]1 -11.3%, O=C(c1cnn2cccnc12)N1CCOc2ccc(C(O)C(c3ccccc3)c3ccccc3)cc2C1 (stereo not drawn) -17.2%, CCCCCCCCCCCCCCCCOCC(COP(=O)([O-])OCC[N+](C)(C)C)OC (stereo not drawn) -6.27%, O=C(c1cccc(F)c1)N1CCC2(CCCN(c3ncccn3)C2)CC1 3.96%, O=C(OCCOCCO)c1ccccc1Nc1cccc(C(F)(F)F)c1 -19.4%, Cc1ncc2c(c1CNC(=O)c1ccc3c(c1)OCO3)CCN(C(=O)c1scc3c1CCCC3)C2 -13.8%, COCCn1c(=O)c(-c2cc(F)cc(F)c2)nc2cnc(Oc3ccc(OC)cc3)nc21 -11.7%, c1ccc(-c2onc(-c3ccco3)c2-c2ccc3c(c2)OCO3)cc1 -7.17%, CC1=C(C/C=C(\C)CCC[C@H](C)CCC[C@H](C)CCCC(C)C)C(=O)c2ccccc2C1=O -17%, O=C(O)c1cc2ccccc2c(Cc2c(O)c(C(=O)O)cc3ccccc23)c1O -24.9%, CCC1OC(=O)C[C@@H](O)[C@H](C)[C@@H](O[C@@H]2O[C@H](C)C[C@H](N(C)C)[C@H]2O)[C@@H](CC=O)C[C@@H](C)C(=O)/C=C/[C@]2(C)OC2C1C (stereo partly drawn) 6.15% and -13.3%, COc1ccc2cccc(N3CCN(CCNC(=O)c4ccc(F)cc4)CC3)c2c1 -7.81%, O=C1CCC[C@@H]2Cc3nc4ccccc4cc3[C@@H]3CCN1[C@H]23 -8.51%, Cc1ncc2c(c1CNC(=O)c1ccccc1F)CCN(C(=O)c1csc(-c3cccs3)n1)C2 0.511%, CC[N+]1(CC(=O)c2ccc(Cl)cc2)CCCCC1 -20.1%, Cc1ccc2occ(CN3CCOc4ccc(C(C)(O)COc5ccccc5)cc4C3)c(=O)c2c1 (stereo not drawn) -22.1%, C=C[C@@]1(C)CC(=O)[C@@]2(O)[C@@]3(C)[C@@H](O)CCC(C)(C)[C@@H]3[C@H](O)[C@H](OC(C)=O)[C@@]2(C)O1 -11.8%
